Here are results for six molecules from patent US20250170255A1 (Daiichi Sankyo, published 2025).

Positions count from the first letter of the chain named.

Assay [1] deals with T1, biotinylated human CD98 antigen (human, UniProt P08195 105-529, biotinylated with EZ-Link NHS-PEG4-Biotin (ELISA)).
T1 construct: extracellular domain
T1 sequence (looked up): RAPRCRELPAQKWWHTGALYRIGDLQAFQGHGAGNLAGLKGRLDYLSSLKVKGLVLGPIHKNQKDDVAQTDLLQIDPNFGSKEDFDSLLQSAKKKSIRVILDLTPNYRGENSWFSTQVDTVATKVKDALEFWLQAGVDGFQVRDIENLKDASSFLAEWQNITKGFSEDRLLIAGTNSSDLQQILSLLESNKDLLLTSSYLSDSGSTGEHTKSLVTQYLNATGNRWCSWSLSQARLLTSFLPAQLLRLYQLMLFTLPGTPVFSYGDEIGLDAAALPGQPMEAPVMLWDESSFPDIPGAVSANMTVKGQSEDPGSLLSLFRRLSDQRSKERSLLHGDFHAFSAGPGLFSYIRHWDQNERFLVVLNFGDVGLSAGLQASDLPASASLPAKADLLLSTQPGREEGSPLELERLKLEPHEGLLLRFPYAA
Briefly: SPR Biacore T200, antibody captured on anti-human IgG (Fc), CD98 antigen as analyte, multi-cycle kinetics.

In assay [2] the target is T1, biotinylated human CD98 antigen. Briefly: ELISA, immobilised biotinylated human CD98 antigen, chemiluminescence. For orientation: ELISA stands for enzyme-linked immunosorbent assay.
Assay [3] has the same target. Nature of the assay: ELISA, immobilised biotinylated human CD98 antigen, chemiluminescence; pH 7.5.
For assay [4] the target is unchanged. Nature of the assay: ELISA, immobilised biotinylated human CD98 antigen, chemiluminescence; pH 5.5.
For assay [5] the target is unchanged. Briefly: ELISA pH 7.5 against pH 5.5.
Assay [6] has the same target. Briefly: ELISA with and without MMP1.
Assay [7] addresses T2, biotinylated amino terminal peptide of human GPRC5D (human, added C-terminal Lys carries biotin, K (Biotin)-NH2 (C-terminal amide)).
T2 construct: Synthetic peptide (Peptide Institute); also called human GPRC5D antigen
T2 peptide: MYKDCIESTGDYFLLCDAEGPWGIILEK
Nature of the assay: ELISA, immobilised biotinylated amino terminal peptide of human GPRC5D, chemiluminescence.

Assay [8] deals with T2, biotinylated amino terminal peptide of …. Nature of the assay: ELISA pH 7.5 against pH 5.5.

B1: anti-CD98 antibody hM23H1L1 (antibody)
heavy: QVQLVQSGAEVKKPGASVKVSCKASGYAFSNYLIEWVRQAPGQGLEWMGVINPGSGVTNYNEKFKGRVTITADTSTSTAYMELSSLRSEDTAVYYCARAEAWFAYWGQGTLVTVSSASTKGPSVFPLAPSSKSTSGGTAALGCLVKDYFPEPVTVSWNSGALTSGVHTFPAVLQSSGLYSLSSVVTVPSSSLGTQTYICNVNHKPSNTKVDKRV[human IgG1 Fc not spelt out]
light: DIVMTQSPDSLAVSLGERATINCKSSQSLLYSSNQKNYLAWYQQKPGQPPKLLIYWASTRESGVPDRFSGSGSGTDFTLTISSLQAEDVAVYYCQRYYGYPWTFGQGTKVEIKRTVAAPSVFIFPPSDEQLKSGTASVVCLLNNFYPREAKVQWKVDNALQSGNSQESVTEQDSKDSTYSLSSTLTLSKADYEKHKVYACEVTHQGLSSPVTKSFNRGEC
notes: Known antibody of WO 2015/146132; Full-length entries
On to B1, for which the Kd in assay [1] is 0.58 nM. Besides, the “EC50 (read off the curve)” value in assay [2] is roughly 0.8 nM.

B2: anti-CD98 masked antibody MhM8001 (antibody)
heavy: B1 heavy
light: GENMWNDLDLVPLGILGGGGSGHHHGGHHHGGHHHGGSDIVMTQSPDSLAVSLGERATINCKSSQSLLYSSNQKNYLAWYQQKPGQPPKLLIYWASTRESGVPDRFSGSGSGTDFTLTISSLQAEDVAVYYCQRYYGYPWTFGQGTKVEIKRTVAAPSVFIFPPSDEQLKSGTASVVCLLNNFYPREAKVQWKVDNALQSGNSQESVTEQDSKDSTYSLSSTLTLSKADYEKHKVYACEVTHQGLSSPVTKSFNRGEC
notes: Mimotope and pH-responsive linker (3 His clusters) on the light chain; Full-length entries
Turning to B2, the half-maximal effective concentration (EC50 (read off the curve)) was roughly 20 nM in assay [3] and roughly 1 nM in assay [4]. For the same molecule, the “EC50 ratio (neutral pH conditions/acidic pH conditions)” value in assay [5] worked out at 13.1.

B3: anti-CD98 masked antibody MhM1013 (antibody)
heavy: B1 heavy
light: GNFYHQYPWPLEILGSGSGGGGSVLVPMAMMASGGSDIVMTQSPDSLAVSLGERATINCKSSQSLLYSSNQKNYLAWYQQKPGQPPKLLIYWASTRESGVPDRFSGSGSGTDFTLTISSLQAEDVAVYYCQRYYGYPWTFGQGTKVEIKRTVAAPSVFIFPPSDEQLKSGTASVVCLLNNFYPREAKVQWKVDNALQSGNSQESVTEQDSKDSTYSLSSTLTLSKADYEKHKVYACEVTHQGLSSPVTKSFNRGEC
notes: ZPZP lib-derived mimotope, MMP-cleavable, on the light chain; Full-length entries
In the case of B3, in assay [6], the “EC50 ratio of binding intensity (without MMP1 / with MMP1)” value came out at 239.

B4: anti-CD98 antibody hM23-M1 (antibody)
heavy: B1 heavy with Y27A
light: B1 light with T115A
notes: Full-length entries
B4 came in with a Kd in assay [1] of 10.3 nM.

B5: anti-GPRC5D antibody C3022 (antibody)
heavy: QVQLVQSGAEVKKPGASVKVSCKASGYTFTGYYMHWVRQAPGQGLEWMGRINPNSGGTNYAQKFQGRVTMTRDTSISTAYMELSGLRSDDTAVYYCASGSVRHPWGQGTLVTVSSASTKGPSVFPLAPSSKSTSGGTAALGCLVKDYFPEPVTVSWNSGALTSGVHTFPAVLQSSGLYSLSSVVTVPSSSLGTQTYICNVNHKPSNTKVDKRV[human IgG1 Fc not spelt out]
light: QPVLTQPPSASGTPGQRVTISCSGSRSNIGGNIVSWYQQFPGTAPRLLTYADNQRPSGVPDRFSGSKSGTSASLAISGLQSEDEADYYCAAWDDSLNGVVFGGGTKLTVLGQPKAAPSVTLFPPSSEELQANKATLVCLISDFYPGAVTVAWKADSSPVKAGVETTTPSKQSNNKYAASSYLSLTPEQWKSHRSYSCQVTHEGSTVEKTVAPTECS
notes: Known antibody of WO 2018/147245; Full-length entries
Turning to B5, the “EC50 (read off the curve)” value in assay [7] was roughly 0.3 nM.

B6: anti-GPRC5D masked antibody MC3-9001 (antibody)
heavy: GETMSVFTRDYFTETPGGGGSGHHHGGHHHGGHHHGGSQVQLVQSGAEVKKPGASVKVSCKASGYTFTGYYMHWVRQAPGQGLEWMGRINPNSGGTNYAQKFQGRVTMTRDTSISTAYMELSGLRSDDTAVYYCASGSVRHPWGQGTLVTVSSASTKGPSVFPLAPSSKSTSGGTAALGCLVKDYFPEPVTVSWNSGALTSGVHTFPAVLQSSGLYSLSSVVTVPSSSLGTQTYICNVNHKPSNTKVDKRV[human IgG1 Fc not spelt out]
light: B5 light
notes: Mimotope and pH-responsive linker on the heavy chain; Full-length entries
For the molecule B6, the “EC50 ratio (neutral pH conditions/acidic pH conditions)” value in assay [8] stood at 40.4.

As a reminder, the Kd is the constant that tells how readily two partners part at equilibrium. By EC50 (read off the curve) is commonly meant the midpoint of the concentration-response curve. Read a low EC50 (read off the curve) as an effect from little substance.
